Experimental data from article PMC4336329 (PLoS ONE, 2015).
Hit rate of the full screen: of about 310,000 compounds, about 14,000 (4.5%) showed an effect of 50% or more. Effects have a minus sign here. This is one part of the list.

Each molecule was assayed against human ether-à-go-go-related gene (hERG) potassium channel (human, UniProt Q12809) (assay: primary screen, population patch clamp on CHO cells stably expressing hERG).
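Also: peak tail current of the secondary pulse compared with the same well before compound.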

human ether-à-go-go-related gene (hERG) potassium channel, sequence (Q12809 whole entry, looked up): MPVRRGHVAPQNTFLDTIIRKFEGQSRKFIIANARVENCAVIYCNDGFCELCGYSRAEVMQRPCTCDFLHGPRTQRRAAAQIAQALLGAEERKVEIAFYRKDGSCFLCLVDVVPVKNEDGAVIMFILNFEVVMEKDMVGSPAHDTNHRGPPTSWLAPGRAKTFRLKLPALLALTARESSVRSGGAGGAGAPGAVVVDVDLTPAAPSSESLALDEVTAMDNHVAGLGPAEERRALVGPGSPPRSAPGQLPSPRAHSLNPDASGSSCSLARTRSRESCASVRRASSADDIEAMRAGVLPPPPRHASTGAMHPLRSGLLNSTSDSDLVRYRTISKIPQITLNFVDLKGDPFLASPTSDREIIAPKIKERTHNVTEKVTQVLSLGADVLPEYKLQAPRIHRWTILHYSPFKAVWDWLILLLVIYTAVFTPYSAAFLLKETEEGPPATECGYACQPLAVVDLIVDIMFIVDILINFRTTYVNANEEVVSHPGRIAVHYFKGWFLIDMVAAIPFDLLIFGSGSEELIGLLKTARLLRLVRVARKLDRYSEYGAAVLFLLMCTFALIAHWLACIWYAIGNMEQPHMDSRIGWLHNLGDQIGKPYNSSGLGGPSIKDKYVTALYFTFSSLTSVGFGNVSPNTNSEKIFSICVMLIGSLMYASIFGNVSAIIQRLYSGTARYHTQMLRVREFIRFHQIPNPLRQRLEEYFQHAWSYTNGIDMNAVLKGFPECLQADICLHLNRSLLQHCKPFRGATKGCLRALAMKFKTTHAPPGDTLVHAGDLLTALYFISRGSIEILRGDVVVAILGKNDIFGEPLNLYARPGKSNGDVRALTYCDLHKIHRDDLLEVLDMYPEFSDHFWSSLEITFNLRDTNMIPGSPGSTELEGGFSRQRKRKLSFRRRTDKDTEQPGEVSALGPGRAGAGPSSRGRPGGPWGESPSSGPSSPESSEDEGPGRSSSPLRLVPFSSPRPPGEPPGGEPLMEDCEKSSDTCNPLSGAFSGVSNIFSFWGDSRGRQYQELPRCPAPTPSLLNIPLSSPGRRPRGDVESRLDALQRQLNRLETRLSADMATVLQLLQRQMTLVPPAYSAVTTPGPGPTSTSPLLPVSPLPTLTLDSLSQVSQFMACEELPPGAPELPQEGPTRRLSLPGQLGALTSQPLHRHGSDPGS

Structure (SMILES) | hERG current change (%, negative = inhibition) at 10uM [%]
CCCCCn1c(=O)[nH]c2cc(C(=O)NCCCN(CC)CC)ccc2c1=O | -15.5
Cc1cc(/C=C(\C#N)C(=O)NCc2cccs2)c(C)n1-c1ccccc1F | 7.95
Cc1ccc(Nc2ccc(C(N)=O)cc2[N+](=O)[O-])cc1 | 1.53
CC1CN(C(=S)SCC(=O)c2ccccc2)CC(C)O1 (centres unmarked) | -4.4
Cc1ccccc1NC(=O)c1nn(C)c2c1CS(=O)(=O)c1ccccc1-2 | 5.26
Cc1ccc(NC(=S)N(CCN2CCOCC2)Cc2cc3cc4c(cc3[nH]c2=O)OCCO4)cc1 | -14.3
COc1ccc(CSc2nncn2C)cc1[N+](=O)[O-] | 4.92
CCc1ccc(C(=O)NNC(=O)C2CSC3(C)CCC(=O)N23)cc1 (centres unmarked) | -6.99
CCCCOc1ccc(C(=O)NNC(=O)C2C3CCC(C3)C2C(=O)O)cc1 (centres unmarked) | 5.03
CCn1nc(C(=O)Nc2nc3ccccc3[nH]2)c2ccccc2c1=O | -25.9
COc1ccc(N2CCN(C(=O)c3ccc4c(c3)CCN4S(=O)(=O)c3ccccc3)CC2)cc1 | -23.2
Cc1cccc2sc(N(CCCN(C)C)C(=O)CCS(=O)(=O)c3ccccc3)nc12 | -35
CCN(CC)C1CCN(C(=O)CCn2nnnc2CN2CCOCC2)C1 (centres unmarked) | 18.4
S=C1SCN(CC2CC2)CN1CC1CC1 | -8.19
COc1cc(C)c(S(=O)(=O)N2CCN=C2c2ccccc2)cc1C | -4.77
CCOc1ncccc1C(=O)N(C)CC(=O)Nc1ccc(C)cc1 | -3.99
CC(Oc1ccc(Br)cc1)C(=O)Nc1ccc(N2CCOCC2)cc1N1CCOCC1 (centres unmarked) | -43.7
COc1ccccc1-c1nc(C#N)c(N2CCN(c3ccccc3)CC2)o1 | -8.28
COc1ccc(CC2=CC(=O)c3ccccc3C2=O)cc1 | 4.71

Structure (SMILES) | hERG current change (%, negative = inhibition) at 10uM [%]
O=C(c1ccc(S(=O)(=O)Nc2ccc(F)cc2)cc1)N1CCN(C(=O)c2ccco2)CC1 | -29.4
O=C(Nn1cnc2ccccc2c1=O)c1cccc(Cl)c1 | 9.21
COc1cc2c(cc1OC)C(C1(O)CCCCC1)NCC2 (centres unmarked) | 15.7
CCOC(=O)c1c(C)c(C(=O)OCC)n(C)c1C | 3.21
COc1ccc(O)c(-c2cc(-c3ccccc3[N+](=O)[O-])[nH]n2)c1 | -11.7
COc1ccccc1C(=O)N1CCN=C1c1ccccc1 | -2.18
COc1ccc(N2CCN(C(=O)c3cccnc3)CC2)c([N+](=O)[O-])c1 | -70.8
CSc1ccc(C(=O)C2CCCN(Cc3cccc4nccnc34)C2)cc1 (centres unmarked) | -82.8
CCN(CC)S(=O)(=O)c1ccc2c(c1)N(CC(=O)NCCCN1CC(C)CC(C)C1)C(=O)CO2 (centres unmarked) | -5.66
Clc1ccc(NCc2cccnc2)c(Cl)c1 | 9.74
COc1ccc(CNC(=O)C(C#N)c2nc3ccccc3nc2N2CCN(C)CC2)cc1 (centres unmarked) | -40.4
CC(C)OCCCNC(=O)COCC(=O)Nc1ccc(OCCc2ccccc2)cc1 | -25.8
O=C1Nc2ccccc2C12OCCCO2 | -12.1
Cc1ccc(CNC(=O)CCNC(=O)Cn2ccc3ccccc3c2=O)cc1 | 8.67
CCc1cccc(CC)c1NC(=O)C[n+]1cccc(C(N)=O)c1.[Cl-] | 6.92
COc1cccc(NC(=S)NC(=O)c2cccnc2)c1 | 9.58
Cc1ccc(N2C(=O)CC(C)(C)CC2=O)cc1Cl | 13.4
COc1ccc(-c2nnn(CC(=O)N3CCOCC3)n2)cc1 | 1.99
O=C(COC(=O)c1c(Cl)ccc(Cl)c1Cl)NC(=O)NCc1ccccc1 | -5.52

Structure (SMILES) | hERG current change (%, negative = inhibition) at 10uM [%]
COc1ccc(OC)c(CN2CCN(C(=O)c3ccc(S(=O)(=O)Nc4ccccc4F)cc3)CC2)c1 | -25.3
C[C@H]([C@H](O)c1ccccc1)N(C)C(=O)CN | 17.9
CC(=O)N1CCN(c2ccc(NC(=O)C(c3ccccc3)c3ccccc3)cc2)CC1 | -2.12
COc1ccc(C2C(C#N)=C(C)NC3=C2C(=O)CC(C)(C)C3)cc1 (centres unmarked) | -5.29
CCCCCC(=O)Nc1cccc(C2=NOC3(C2)C[C@@H](C(N)=O)N(C(=O)c2cc([N+](=O)[O-])cc([N+](=O)[O-])c2C)C3)c1 (some centres unmarked) | 5.02
COc1ccc(-c2cc(C(=O)N3CCN(c4ccccc4)CC3)c3ccccc3n2)cc1OC | -7.87
O=C(Nc1ccncc1)c1ccc(Cl)c([N+](=O)[O-])c1 | -1.86
COc1ccc(C(=O)Nc2c(-c3cccs3)c(=O)c3ccccc3n2C)cc1 | -1.39
COCCC(=O)N1CCCC(C(=O)c2ccccc2SC)C1 (centres unmarked) | 13.1
N#CC(C#N)=NNc1ccc(S(=O)(=O)N2CCCCC2)cc1 | -26.2
COC(=O)C12CCC(C)(c3nc4ccccc4nc31)C2(C)C (centres unmarked) | 1.05
NS(=O)(=O)c1ccc(N2CCN(CCOc3ccc(Cl)cc3)CC2)nc1 | -69.8
O=C(N/N=C/c1ccc(-c2cccc(C(F)(F)F)c2)o1)c1cccc(F)c1 | 7.1
O=C(c1ccc(S(=O)(=O)Cc2ccccc2Cl)c([N+](=O)[O-])c1)N1CCOCC1 | 6.77
COc1ccc(CN(C(=O)c2cnccn2)C(C(=O)Nc2ccc(F)cc2)c2ccccc2)cc1 (centres unmarked) | -68.2
CCn1c(SCC(=O)Nc2nc(C)c(C(=O)OC)s2)nnc1C(C)C | 0.0754
CCSC(=Nc1ccccc1)Nc1ccccc1 | 7.89
Cc1cc(C)nc(OC(C(=O)O)C(OCCC(C)C)(c2ccccc2)c2ccccc2)n1 (centres unmarked) | 6.26
